Source: PubChem BioAssay (NCI)
Several values for one entry are separate records, joined by “and”; a condition that tells them apart may be missing. Identical values can stand only once.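 Each compound was tested at five concentrations against cells in 96-well plates for 48 hours. Here, GI50 denotes the concentration required for 50% inhibition of growth. Definition used: TGI = concentration required for complete inhibition of growth.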

System: NCI-H322M lung
Assay: DTP human tumour cell line panel, 48 h

| Structure (SMILES) | TGI | GI50 |
| --- | --- | --- |
| O=C(Nc1ccc(Cl)cc1)C1C(=O)C(=O)N(c2ccc(Cl)cc2)C1=O (configuration not stated) | > 100 µM |  |
| N[C@@H]1CCN(c2c(F)cc3c(=O)c(C(=O)O)cn4c3c2Oc2c-4ccc3c2ccc2ccccc23)C1 | > 100 µM |  |
| CC(C)C(O)(C(C)C)C(C)C | > 100 µM |  |
| Cc1ccc(S(=O)(=O)Nc2cccc3c(=O)[nH]cnc23)cc1 | > 100 µM |  |
| Nn1c(C23CC4CC(CC(C4)C2)C3)n[nH]c1=S | > 100 µM |  |
| CCC(=O)OC[n+]1ccc2c(C)c3[nH]c4ccccc4c3c(C)c2c1 | 1.98 µM |  |
| O=[N+]([O-])c1ccc(CSc2nncc3[nH]cnc23)cc1 | > 100 µM |  |
| COC(=O)c1csc([C@@H](OC(=O)[C@H](C)[C@H](CCCC(C)(Cl)Cl)OC(=O)c2csc([C@H](O)CO)n2)C(C)C)n1 | 29.5 µM |  |
| Cc1nnc(-c2ccc(C)c(-c3ccc(C(=O)Nc4cccc(C#N)c4)cc3)c2)o1 | > 25 µM | > 25 µM |
| COc1c(=O)cc2cc[nH]c3cc[nH]c1c23 | > 100 µM |  |
| COC(=O)C(=O)CC(=O)CCn1[nH]c(=O)c(Cl)c(Cl)c1=O | > 100 µM |  |
| C=C(C)C1CCC(C(=O)O)CC1 (configuration not stated) | > 100 µM |  |
| Cc1ccc(C(=O)O)c(/C=C2\Cc3ccc(C)cc3C2=O)c1 | > 100 µM |  |
| O=S(=O)(O)c1ccc(N=Nc2ccc3c(S(=O)(=O)O)cccc3c2O)c2ccccc12 | > 100 µM |  |
| CSC(SC)(C(=O)O)c1cc(-c2c(Cl)cccc2Cl)no1 | 93.5 µM |  |
| CCOC(=O)[CH-]C(=O)C12CC3CC(CC(C3)C1)C2.CCOC(=O)[CH-]C(=O)C12CC3CC(CC(C3)C1)C2.CC[O-].CC[O-].[Ti+4] | > 100 µM | > 100 µM |
| CCOc1cc(C(C)(C)C)ccc1C1=N[C@H](c2ccc(Cl)cc2)[C@H](c2ccc(Cl)cc2)N1C(=O)N1CCN(CC#Cc2cccc3c2CN([C@@H]2CCC(=O)NC2=O)C3=O)CC1 | > 100 µM | 0.206 µM |
| CCN(CC)CCCC(CCl)Nc1ccnc2cc(Cl)ccc12 (configuration not stated) | 32.7 µM and 47 µM | 11.5 µM and 13.5 µM |
| CCOC(=O)Nc1cc2c(c(N)n1)N=C(c1ccc(OC)cc1)CN2 | 17.2 µM | 0.209 µM |
| COc1cc(Nc2ncccc2C(=O)Nc2nc3ccc(F)cc3s2)cc(OC)c1OC | > 100 µM | 3.71 µM |
| O=C1C=C(Nc2ccccc2C(=O)CC(=O)C(=O)Nc2cccc([N+](=O)[O-])c2)c2ccccc2C1=O | > 100 µM |  |
| COc1ccc2c(c1)NC1=C(C(=O)OC1)C2c1cc(OC)c(OC)c(OC)c1 (configuration not stated) | > 100 µM | < 0.01 µM |
| Cc1cn(C2CC(OC(=O)c3ccc(Cl)cc3)C(COC(=O)c3ccc(Cl)cc3)O2)c(=O)[nH]c1=O (configuration not stated) | > 100 µM |  |
| COc1cc2c(cc1O)c(O)cc1c3cc(OC)c(OC)cc3c[n+](C)c21 | > 100 µM |  |
| C#CCn1c(=O)c(I)cn(/C(=C/C(=O)OCC)C(=O)OCC)c1=O | 30.8 µM |  |

| Structure (SMILES) | TGI | GI50 |
| --- | --- | --- |
| CCOP(=Nc1ccc(N(C)C)cc1)(OCC)OCC | > 100 µM |  |
| CS(=O)(=O)Nc1ccc2ccccc2c1-c1c(NS(C)(=O)=O)ccc2ccccc12 | > 25 µM |  |
| CCN1C(=O)c2ccc3c4c(ccc(c24)C1=O)C(=O)N(CCCNCc1ccccc1OC)C3=O | 2.92 µM | 0.756 µM |
| C=CC[P@]1(=O)O[C@H](c2ccccc2)[C@H](C)N1C | > 100 µM |  |
| Cc1cn(-c2cc(NC(=O)c3cccc(C#Cc4cccc5[nH]nc(N)c45)c3)cc(C(F)(F)F)c2)cn1 | > 100 µM | 20.6 µM |
| CS(=O)(=O)CCNCc1coc(-c2ccc3ncnc(Nc4ccc(OCc5ccccc5)cc4)c3c2)c1 | 12.8 µM | 3.25 µM |
| Cc1cc(N(CC(C)Br)CC(C)Br)ccc1N=Nc1ccccc1C(=O)O (configuration not stated) | 10.1 µM |  |
| CCC1C[N+]23CCc4c([nH]c5ccccc45)C2CC1CC3 (configuration not stated) | > 100 µM |  |
| CN(c1ccc(NC(=O)Nc2c(Cl)cccc2Cl)cc1)c1ccnc(Nc2cccc(CS(C)(=O)=O)c2)n1 | 13 µM | 4.23 µM |
| O=C(NC(=O)c1c(F)cccc1F)Nc1cccc(Oc2ncc(Cl)cn2)c1 | > 100 µM |  |
| Oc1ccc2ccccc2c1N=Nc1cccc2ccccc12 | > 100 µM |  |
| CCCCCCCCCCCCCCCCCCOC[C@H](COP(=O)(O)O[C@H]1[C@H](O)[C@@H](O)[C@H](O)C[C@H]1O)OC | > 100 µM and 23.5 µM | 93.9 µM and 11.2 µM |
| CC(C)NC(=O)OCc1c2c(n(C)c1COC(=O)NC(C)C)-c1cc(Cl)c(Cl)cc1CC2 | > 100 µM |  |
| CC(=O)OCC1OC(N2C(C)=C(C(C)=O)C(c3ccc(Cl)cc3)C(C#N)=C2S)C(OC(C)=O)C(OC(C)=O)C1OC(C)=O (configuration not stated) | > 100 µM |  |
| CC(C)CNc1nc(-c2ccccc2Cl)nc2ccccc12 | 35.1 µM | 14.9 µM |
| CC1C2CC(C(S(=O)(=O)O)C2=O)C1(C)C (configuration not stated) | > 100 µM |  |
| O=C(O)c1c2c(cc3c1CC(Cc1ccccc1)C3=O)CCC2 (configuration not stated) | > 100 µM |  |
| OC(CNc1ccccn1)c1ccccc1 (configuration not stated) | > 100 µM |  |
| S=C(N/N=C/c1ccccn1)N1CCCCC1 | > 100 µM |  |
| O=C(Nc1ccc(C(F)(F)F)cc1[N+](=O)[O-])C(=O)C1NC(=S)NC1=O (configuration not stated) | > 100 µM |  |
| N#C[S-].[La+3].c1cnc2c(c1)ccc1cccnc12.c1cnc2c(c1)ccc1cccnc12.c1cnc2c(c1)ccc1cccnc12 | 10.4 µM |  |
| N#C/C(=C/c1cccc(Oc2ccccc2)c1)c1ccccc1 | > 100 µM |  |
| Nc1cc([N+](=O)[O-])ccc1C(=O)N1CCC[C@H]1CO | > 100 µM |  |
| O=C1NC(=S)N/C1=C\c1cccs1 | > 100 µM |  |
